In PubChem BioAssay AID485281 (National Center for Advancing Translational Sciences (NCATS), 2010):
Screen size: about 350,000 compounds; about 260 (0.074%) were called active. The inconclusive results got no clear call from the source; some entries with a clear call stand among them for comparison. The call rests on the fitted dose curve; in most records, active means well fitted inhibition curve with a large enough effect; inconclusive means small, poorly fitted or top-dose-only effect; inactive means no such curve, though single readings can be large or run the other way. Where the call is inconclusive, the potency comes from a doubtful curve fit.
Further: nearly all actives have a fitted effect of over 20% in size.
Potency means the concentration at half of the fitted maximal effect; tags describe the fitted curve by direction and shape.

What follows are compounds tested against Ferritin light chain (Equus caballus) (UniProt P02791) (assay: qHTS Assay for Identification of Novel General Anesthetics). Conditions: apoferritin/1-aminoanthracene competitive binding, fluorescence; series mostly up to 77.5 µM.
Chain of UniProt P02791 (P02791 whole entry, looked up): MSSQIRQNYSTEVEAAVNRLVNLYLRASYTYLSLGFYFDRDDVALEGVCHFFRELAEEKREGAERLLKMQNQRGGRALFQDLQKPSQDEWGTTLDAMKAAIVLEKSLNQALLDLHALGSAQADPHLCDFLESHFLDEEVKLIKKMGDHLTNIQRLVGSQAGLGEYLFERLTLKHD
Procedure, shortened: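 Steps: apoferritin (10 uM) was premixed with half-saturated 1-AMA in PBS, compounds were pin-transferred, plates stood 10 min at room temperature, fluorescence was read at 380/535 nm, and curves were fitted with a Hill equation.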
With `Cc1onc(-c2ccccc2)c1-c1nc2ccccc2c(=O)o1` the Potency was inconclusive: 31.6 µM [inhibitor, single point].
In the case of `c1ccc(OCc2nnc3n2N=C(c2ccccc2)CS3)cc1`, the Potency is reported as inconclusive: 28.2 µM [inhibitor, partial curve].
`Cc1ccc(-n2cc(S(=O)(=O)c3ccc(C)cc3)[nH]c2=O)cc1` was tested, and the Potency was “inactive”.
In the case of `Cc1cc(OCCCSc2nc(-c3ccc(C(C)(C)C)cc3)nc3cc(=O)[nH]n23)ccc1Cl`, the Potency is reported as inconclusive: 12.6 µM [inhibitor, partial curve].
For `O=C(Nc1ccc(Cc2ccncc2)cc1)c1ccc(N2CCOCC2)c([N+](=O)[O-])c1`, the Potency was inconclusive: 15.8 µM [inhibitor, partial curve].
`O=C(OCc1ccc(Cl)cc1)c1cccnc1Cl` was tested, and the Potency was “inactive”.
In the case of `CCc1ccc2oc(-c3ccc(OC)cc3)cc(=Nc3c(C)n(C)n(-c4ccccc4)c3=O)c2c1`, the Potency is reported as inconclusive: 31.6 µM [inhibitor, partial curve].
In the case of `CSc1ccc(CN2CCN(CC=C(C)C)C(CCO)C2)cc1` (stereo unspecified), the Potency is reported as “inactive”.
With `COc1ccccc1NC(=O)Cn1c(=O)n(Cc2ccco2)c(=O)c2oc3ccccc3c21` the Potency was “inactive”.
With `O=C(Nc1ccccc1)c1ccccc1N=Cc1ccccc1O` the Potency was “inactive”.
With `COc1ccc(N=C2C(=O)Nc3ccc(C)c(Br)c32)cc1` the Potency was inconclusive: 28.2 µM [inhibitor, single point].
In the case of `COc1ccc2c(c1)c(=O)c(S(=O)(=O)c1ccc(C)c(C)c1)cn2CC(=O)Nc1ccccc1`, the Potency is reported as inconclusive: 17.8 µM [inhibitor, partial curve].
With `O=C(/C=C/c1ccc(Br)cc1)NC1CCCCCC1` the Potency was “inactive”.
`NNC(=O)CNC(=O)c1ccc(F)cc1` was tested, and the Potency was inconclusive: 50.1 µM [inhibitor, single point].
`COc1ccc(Cl)cc1NC(=O)CN(c1cc(C)cc(C)c1)S(=O)(=O)c1c(C)n[nH]c1C` was tested, and the Potency was inconclusive: 3.16 µM [inhibitor, full curve].
For `COC(=O)CC1C(C)(C)C(=O)C2CC3=C(CC[C@]4(C)C3=CC(=O)OC4c3ccoc3)[C@@]1(C)C2=O` (stereo partly specified), the Potency was inconclusive: 10 µM [inhibitor, partial curve].
`CCn1c(SCC(=O)N/N=C/C=C\c2ccccc2[N+](=O)[O-])nc2ccccc21` was tested, and the Potency was inconclusive: 44.7 µM [inhibitor, single point].
In the case of `Cc1ccc(-c2cn3c(n2)sc2cc(C(=O)NCCCc4ccccc4)ccc23)cc1`, the Potency is reported as inconclusive: 25.1 µM [inhibitor, partial curve].
In the case of `COc1ccc(CCNC(=O)CCc2c(C)nc3c(c(C)nn3-c3ccc(C)cc3)c2C)c(OC)c1`, the Potency is reported as “inactive”.
In the case of `CCCC(=O)Nc1nc2ccc(OCC)cc2s1`, the Potency is reported as “inactive”.
For `COc1cc([N+](=O)[O-])ccc1NC(=O)NNC(=O)CCc1ccccc1`, the Potency was inconclusive: 39.8 µM [inhibitor, single point].
For `COc1ccc(/C=N/NC(=O)CC(=O)NC2CCCCC2)cc1`, the Potency was inconclusive: 3.98 µM [inhibitor, full curve].
In the case of `O=C(COC(=O)Cc1ccsc1)NCC12CC3CC(CC(C3)C1)C2`, the Potency is reported as inconclusive: 25.1 µM [inhibitor, partial curve].
In the case of `Cc1cc2c(NC(=O)Nc3ccc(C(C)(C)C)cc3)cccc2nn1`, the Potency is reported as inconclusive: 50.1 µM [inhibitor, single point].
In the case of `CC(C)CN1C(=O)c2ccc(C(=O)Nc3ccncc3)cc2C1=O`, the Potency is reported as inconclusive: 25.1 µM [inhibitor, partial curve].
With `Cc1ccc(-n2ncc3c(NC4CCCCC4)ncnc32)cc1` the Potency was “inactive”.
In the case of `O=C(CCc1ccccc1)n1nc(-c2ccco2)nc1SCc1ccccc1`, the Potency is reported as inconclusive: 28.2 µM [inhibitor, partial curve].
For `Cc1nn(CC2CCCCC2)c(N)c1-c1ccccc1`, the Potency was inconclusive: 28.2 µM [inhibitor, partial curve].
In the case of `O=C(Nc1ccc(N2CCCCC2)c(Cl)c1)c1ncn[nH]1`, the Potency is reported as inconclusive: 20 µM [inhibitor, partial curve].
`Cc1cccc(Nc2nc(N)c([N+](=O)[O-])c(N3CC(C)CC(C)C3)n2)c1` (stereo unspecified) was tested, and the Potency was inconclusive: 20 µM [inhibitor, partial curve].
In the case of `CC12CCC(C(=O)N(CSC(=S)N/N=C\c3ccccc3O)C1=O)C2(C)C` (stereo unspecified), the Potency is reported as inconclusive: 28.2 µM [inhibitor, single point].
In the case of `CN(Cc1ccc(OCC(O)CN2CCCCC2)cc1)Cc1ccnc2ccccc12` (stereo unspecified), the Potency is reported as “inactive”.
With `Cc1nn(CC(=O)NCCc2ccccc2Cl)c(=O)c2nn(-c3ccccc3)c(C)c12` the Potency was inconclusive: 1.26 µM [inhibitor, full curve].
`COCCn1c(SCC(=O)Nc2ccc(NC(=O)c3ccco3)c(OC)c2)nc2ccccc2c1=O` was tested, and the Potency was “inactive”.
In the case of `Cc1ccc(/C=C/C(=O)OCC(=O)N2CC(=O)Nc3ccccc32)o1`, the Potency is reported as inconclusive: 35.5 µM [inhibitor, single point].
`Cc1cccc(C(=O)N2c3ccccc3C(=O)OC2c2ccc3c(c2)OCO3)c1` (stereo unspecified) was tested, and the Potency was inconclusive: 35.5 µM [inhibitor, partial curve].
For `O=C(c1ccco1)N1CCN(S(=O)(=O)c2ccc(S(=O)(=O)NC3CCCCC3)cc2)CC1`, the Potency was inconclusive: 31.6 µM [inhibitor, single point].
For `COc1ccc(CC2(CO)CCN(Cc3cnn(-c4ccccc4OC)c3)CC2)cc1`, the Potency was “inactive”.
With `CCOc1ccc(C(CCc2ccccc2)NC(=O)c2ccccc2OC)cc1OCC` (stereo unspecified) the Potency was inconclusive: 28.2 µM [inhibitor, partial curve].
`Cc1cc(C(=O)N[C@H](c2ccccc2)[C@@]2(C)C[C@@H]2[C@@H](C)C(=O)Nc2ccc3ccccc3c2)n(C)n1` was tested, and the Potency was “inactive”.
With `Cc1ccc(CNC(=O)CCC(=O)N2CC(C)Oc3ccc(Cl)cc32)cc1` (stereo unspecified) the Potency was inconclusive: 35.5 µM [inhibitor, partial curve].
In the case of `O=C1NN(c2ccccc2)C(=O)C2C1C1C=CC2C12CC2` (stereo unspecified), the Potency is reported as inconclusive: 14.1 µM [inhibitor, partial curve].
In the case of `CCC(C)N1C(=O)S/C(=C/c2ccc(N3CCOCC3)cc2C)C1=O` (stereo unspecified), the Potency is reported as “inactive”.
`O=C(COc1ccc(S(=O)(=O)NC2CCCCC2)cc1)Nc1ccc2c(c1)OCCO2` was tested, and the Potency was inconclusive: 3.98 µM [inhibitor, full curve].
`O=C(Nc1cccc2cccnc12)c1ccc(F)cc1` was tested, and the Potency was “inactive”.
In the case of `CCC(C(=O)OCC(=O)N1C(C)CCCC1C)c1ccccc1` (stereo unspecified), the Potency is reported as inconclusive: 25.1 µM [inhibitor, partial curve].
In the case of `CCCCSc1nc(NCc2ccco2)c2c3c(sc2n1)COC(C)(C)C3`, the Potency is reported as inconclusive: 31.6 µM [inhibitor, partial curve].
`CCOC(=O)c1[nH]c(C)c(C(=O)OCC(=O)N2CCCCC2C)c1C` (stereo unspecified) was tested, and the Potency was inconclusive: 28.2 µM [inhibitor, partial curve].
For `COc1ccc(C2CC(c3cccc(OC)c3OC)n3nnnc3N2)cc1` (stereo unspecified), the Potency was inconclusive: 25.1 µM [inhibitor, single point].
With `CCCN(CCC)C(=O)Cc1coc2ccc3ccccc3c12` the Potency was inconclusive: 28.2 µM [inhibitor, partial curve].
In the case of `O=C(Cn1ccc(C(F)(F)F)n1)Nc1cccc(S(=O)(=O)N2CCCCC2)c1`, the Potency is reported as inconclusive: 35.5 µM [inhibitor, partial curve].
For `O=C(Nc1nnc(SCc2c(Cl)cccc2Cl)s1)C1CCCO1` (stereo unspecified), the Potency was inconclusive: 20 µM [inhibitor, partial curve].
For `CC(/C=C/c1ccco1)=N\NC(=O)CNc1cccc(C)c1`, the Potency was inconclusive: 25.1 µM [inhibitor, partial curve].
`CCOC(=O)C1=C(c2ccccc2)N=c2s/c(=C\c3cccc(O)c3)c(=O)n2C1c1cccs1` (stereo unspecified) was tested, and the Potency was inconclusive: 39.8 µM [inhibitor, partial curve].
For `O=C1c2cccc3c(N4CCCCC4)ccc(c23)C(=O)N1c1ccccc1O`, the Potency was “inactive”.
For `CCCN(CCC)S(=O)(=O)c1ccc(Cl)c([N+](=O)[O-])c1`, the Potency was inconclusive: 17.8 µM [inhibitor, partial curve].
For `Cc1ccc(S(=O)(=O)/C(C#N)=C/c2c(N3CCC(C(N)=O)CC3)nc3ccccn3c2=O)cc1`, the Potency was inconclusive: 28.2 µM [inhibitor, partial curve].
With `Cc1ccc(C2CC2c2n[nH]c(=S)n2-c2ccc(C)cc2)cc1` (stereo unspecified) the Potency was inconclusive: 35.5 µM [inhibitor, partial curve].
In the case of `Cc1ccc2c(c1)N(C(=O)CCC(=O)Nc1ccccc1Cl)CC(C)O2` (stereo unspecified), the Potency is reported as inconclusive: 22.4 µM [inhibitor, partial curve].
With `c1ccc(CNCCC(Cc2ccccc2)c2ccco2)cc1` (stereo unspecified) the Potency was “inactive”.
In the case of `CCN(CC)S(=O)(=O)c1ccc(O)c(C(=O)OCC(=O)Nc2cc(C)c(C)cc2[N+](=O)[O-])c1`, the Potency is reported as inconclusive: 20 µM [inhibitor, partial curve].
`Cc1ccc(N2CCN(c3ccc(C)cc3)C2c2cccnc2)cc1` was tested, and the Potency was inconclusive: 56.2 µM [inhibitor, partial curve, poor fit].
With `CC/C(=N\NC(=O)CSCc1ccccc1Br)c1ccc2c(c1)OCCO2` the Potency was inconclusive: 2.82 µM [inhibitor, full curve].
For `O=C(CC1N=C2c3ccccc3N=C(SCc3ccc(Cl)cc3)N2C1=O)NCCc1ccccc1` (stereo unspecified), the Potency was inconclusive: 4.47 µM [inhibitor, full curve].
With `CCN(CC)C(=O)c1ccc(Oc2ccc([N+](=O)[O-])cc2Cl)cc1` the Potency was inconclusive: 28.2 µM [inhibitor, partial curve].
For `CCN(c1ccc(OC)cc1)S(=O)(=O)c1ccc(-c2ccc(=O)[nH]n2)o1`, the Potency was inconclusive: 31.6 µM [inhibitor, single point].
